Structures can show the parent of a compound that is named as a salt. ± gives the standard error. About 75 (6%) of roughly 1,300 compounds showed an effect of 50% or more. The list shows a part of the results.
Tested on: Trichoderma virens ATCC 9645
Assay: growth yield (OD600) relative to untreated control; higher = less growth inhibition
Conditions: compound concentration: 100 uM
Method in brief: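 For each 96-well plate, 100 μl aliquots were prepared with Trichoderma virens ATCC 9645 spores suspended at 15,000 spores ml^−1 in potato dextrose broth. The spores had been harvested from potato dextrose agar plates after 7 days. Library compounds were present at 100 μM final, some wells also receiving a biocide at 200 ng ml^−1, and plates were grown at 30 °C with OD600 read on a BioTek EL800 at 40 h and 72 h. Reported growth, relative to the control lacking both agents, is the mean of duplicate screens.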

Compound	growth yield (40 h)	growth yield (72 h)
CCCNC(C)(C)COC(=O)c1ccccc1 [Meprylcaine hydrochloride]	105 ± 4.8%	102 ± 3.9%
C[N+](C)(CCOc1ccccc1)Cc1ccccc1.O=C([O-])c1cc2ccccc2cc1O [Bephenium hydroxynaphthoate]	73.2 ± 1.1%	79.6 ± 2.2%
CC(NCCc1ccc(O)cc1)C(O)c1ccc(O)cc1 (configuration not stated) [Ritodrine hydrochloride]	103 ± 2.5%	107 ± 1.3%
CCC1(C)CC(=O)NC1=O (configuration not stated) [Ethosuximide]	102.6 ± 0.32%	103 ± 1.1%
NC1CCN(c2c(F)cc3c(=O)c(C(=O)O)cn(C4CC4)c3c2Cl)C1 (configuration not stated) [Clinafloxacin]	97.7 ± 4.6%	95.5 ± 2.6%
CCCc1nn(C)c2c(=O)[nH]c(-c3cc(S(=O)(=O)N4CCN(C)CC4)ccc3OCC)nc12 [Sildenafil]	99.6 ± 4.3%	95.1 ± 4.5%
CCC(C)(C)C(=O)O[C@H]1C[C@@H](C)C=C2C=C[C@H](C)[C@H](CC[C@@H]3C[C@@H](O)CC(=O)O3)[C@H]21 [Simvastatin]	103 ± 1.3%	96.2 ± 4.5%
CC(=O)Oc1ccc(C(c2ccc(OC(C)=O)cc2)c2ccccn2)cc1 [Bisacodyl]	105%	98.6%
Cc1ccccc1OCC(O)CO (configuration not stated) [Mephenesin]	98 ± 3.3%	99.5 ± 3.5%
O=C1CN(/N=C/c2ccc([N+](=O)[O-])o2)C(=O)N1 [Nitrofurantoin]	95.3 ± 0.64%	97.5 ± 1.3%
C[C@H](N)[C@H](O)c1cccc(O)c1 [Metaraminol bitartrate]	102 ± 2.4%	104 ± 1.7%
CCN(CC)CCOC(=O)C(Cc1cccc2ccccc12)CC1CCCO1 (configuration not stated) [Nafronyl oxalate]	94.8 ± 4%	102 ± 1.7%
O=C1CN(/N=C/c2ccc(-c3ccc([N+](=O)[O-])cc3)o2)C(=O)N1 [Dantrolene sodium salt]	93.4 ± 2.2%	99.7 ± 1.4%
CCOC(=O)n1ccn(C)c1=S [Carbimazole]	97.5%	91.5%
CC1(C)S[C@@H]2[C@H](NC(=O)[C@H](C(=O)O)c3ccsc3)C(=O)N2[C@H]1C(=O)O [Ticarcillin sodium]	110 ± 1.9%	104.2 ± 0.42%
CN[C@@H]1[C@@H](O)[C@@H](O[C@@H]2[C@@H](O)[C@H](O[C@H]3OC(CN)=CC[C@H]3N)[C@@H](N)C[C@H]2N)OC[C@]1(C)O [Sisomicin sulfate]	105 ± 2.7%	102 ± 1.7%

Compound	growth yield (40 h)	growth yield (72 h)
Cc1cc(NS(=O)(=O)c2ccc(N)cc2)no1 [Sulfamethoxazole]	40 ± 4.8%	82.9 ± 2.1%
CC[C@H]1OC(=O)C[C@@H](O)[C@H](C)[C@@H](O[C@@H]2O[C@H](C)[C@@H](O[C@H]3C[C@@](C)(O)[C@@H](O)[C@H](C)O3)[C@H](N(C)C)[C@H]2O)[C@@H](CC=O)C[C@@H](C)C(=O)/C=C/C(C)=C/[C@@H]1CO[C@@H]1O[C@H](C)[C@@H](O)[C@@H](OC)[C@H]1OC [Tylosin]	95.94 ± 0.32%	94.2 ± 1.9%
O=C(CCCCCCC(=O)Nc1ccccc1)NO [Vorinostat]	108.2 ± 0.79%	99.74 ± 0.73%
CCNC(=O)CCC/C=C\C[C@@H]1[C@@H](/C=C/[C@@H](O)CCc2ccccc2)[C@H](O)C[C@@H]1O [Bimatoprost]	104 ± 1.6%	99.32 ± 0.1%
COC(=O)C1=C(C)NC(C)=C(C(=O)OC2CCCN(Cc3ccccc3)C2)C1c1cccc([N+](=O)[O-])c1 (configuration not stated) [Benidipine hydrochloride]	101 ± 5.4%	111 ± 2%
C[C@]12C[C@H](O)[C@H]3[C@@H](CCC4=CC(=O)CC[C@@]43C)[C@@H]1CC[C@@H]2C(=O)CO [Corticosterone]	101 ± 6.7%	104 ± 6.8%
CC1(C)O[C@@H]2C[C@H]3[C@@H]4CCC5=CC(=O)C=C[C@]5(C)[C@H]4[C@@H](O)C[C@]3(C)[C@]2(C(=O)CO)O1 [Desonide]	109 ± 11%	98.7 ± 6.6%
CCN(CC)C(=S)SSC(=S)N(CC)CC [Disulfiram]	27.2 ± 17%	67.8 ± 12%
C/C(=C(\CCOP(=O)(O)O)SC(=O)c1ccccc1)N(C=O)Cc1cnc(C)nc1N [Benfotiamine]	99.75 ± 0.64%	96.38 ± 0.1%
Nc1c2c(nc3ccccc13)CCCC2 [Tacrine hydrochloride]	104 ± 5.1%	106 ± 3.7%
CCCCN(CCCC)CCC(O)c1cc2c(Cl)cc(Cl)cc2c2cc(C(F)(F)F)ccc12 (configuration not stated) [Halofantrine hydrochloride]	25.6 ± 6.2%	95.9%
C#C[C@]1(O)CC[C@H]2[C@@H]3CCc4cc(O)ccc4[C@H]3CC[C@@]21C [Ethinylestradiol]	79.3 ± 4.3%	80.1 ± 1.7%
CCOC(=O)C1=C(C)NC(C)=C(C(=O)OCC)C1c1ccccc1/C=C/C(=O)OC(C)(C)C [Lacidipine]	96.1 ± 4.6%	96.3 ± 5.7%
CCOc1cc(CC(=O)N[C@@H](CC(C)C)c2ccccc2N2CCCCC2)ccc1C(=O)O [Repaglinide]	113 ± 3.3%	103 ± 2.7%
CC(=O)OCC(=O)[C@@]1(O)[C@H](C)C[C@H]2[C@@H]3CCC4=CC(=O)C=C[C@]4(C)[C@@]3(F)[C@@H](O)C[C@@]21C [Dexamethasone acetate]	102 ± 4%	103 ± 3.7%

From the supplement of paper PMC8007513
